The other results are listed elsewhere or left out. Sequences were assembled here from the parent chain. Inactive controls read about 0.05.
B1: TEV protease; numbered along this chain (parent)
chain: MGESLFKGPRDYNPISSSICHLTNESDGHTTSLYGIGFGPFIITNKHLFRRNNGTLVVQSLHGVFKVKDTTTLQQHLVDGRDMIIIRMPKDFPPFPQKLKFREPQREERICLVTTNFQTKSMSSMVSDTSCTFPSGDGIFWKHWIQTKDGQCGSPLVSTRDGFIVGIHSASNFTNTNNYFTSVPKNFMELLTNQEAQQWVSGWRLNADSVLWGGHKVFMVKPEEPFQPVKEATQL

Variants of: B1
Experiment: raw area under fraction-flipped curve 0-4 h after induction (AUC4h, not background-subtracted), DNA-recorder readout of cleavage of the substrate (dimensionless); higher = more cleavage of the substrate by the protease variant
Conditions: temperature: 34 °C; time window: 0-4 h after rhamnose induction
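Note: Bxb1 expression induced with 0.2% (w/v) L-rhamnose at OD600 near 0.5, cultures sampled hourly, flipped fraction per protease–substrate barcode pair counted by paired-end Illumina sequencing.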

Variant | area with substrate ENLYFCS | area with substrate ENLYFES | area with substrate ENLYFIS | area with substrate ENLYFKS | area with substrate ENLYFLS | area with substrate ENLYFMS | area with substrate ENLYFNS | area with substrate ENLYFPS | area with substrate ENLYFSS | area with substrate ENLYFTS | area with substrate ENLYFVS | area with substrate ENLYFDS | area with substrate ENLYFRS | area with substrate ENLYFYS | area with substrate ENLYFFS | area with substrate ENLYFHS | area with substrate ENLYFWS | area with substrate ENLYFGS
P104D | 0.0791 | 0.0566 | 0.0506 | 0.0429 | 0.0489 | 0.0587 | 0.0579 | 0.0508 | 0.0487 | 0.0385 | 0.0463 |  |  |  |  |  |  | 
P104T | 0.0458 | 0.0518 |  |  | 0.0799 | 0.0596 |  |  | 0.0437 |  |  | 0.0512 | 0.0423 | 0.0684 |  |  |  | 
R106D | 0.0627 | 0.064 | 0.0572 | 0.0682 | 0.0649 | 0.0728 | 0.0689 | 0.0563 | 0.065 | 0.0544 | 0.0681 | 0.0637 | 0.0523 | 0.0641 | 0.0814 | 0.0618 |  | 
L112W | 0.0993 | 0.077 | 0.0545 | 0.0521 | 0.0775 | 0.0654 | 0.0509 | 0.0457 | 0.0581 |  |  | 0.0557 | 0.063 | 0.0566 | 0.0695 | 0.0581 | 0.0531 | 
L112Y | 0.0558 | 0.0629 | 0.0531 | 0.0541 |  | 0.0625 | 0.0485 | 0.0567 | 0.0641 | 0.0522 | 0.0588 | 0.0671 | 0.0555 | 0.0684 | 0.071 | 0.0462 | 0.0417 | 0.0631
D128A | 0.0653 | 0.0652 | 0.0619 |  |  | 0.0614 | 0.0627 | 0.0576 | 0.0723 | 0.0605 |  |  | 0.0584 | 0.0672 | 0.0733 | 0.0564 | 0.0607 | 
D128F | 0.0609 | 0.0741 | 0.0612 |  |  | 0.0701 |  | 0.0662 | 0.058 | 0.0592 | 0.054 | 0.0436 |  | 0.0632 | 0.0718 | 0.0638 | 0.0461 | 
D128K | 0.0562 |  | 0.0653 |  |  | 0.0693 |  | 0.0619 |  | 0.0465 |  |  |  |  | 0.0742 | 0.0629 |  | 0.0642
G136N | 0.0537 | 0.0648 | 0.0544 | 0.0601 | 0.056 | 0.0574 | 0.0581 |  |  | 0.0698 | 0.0081 | 0.0613 | 0.0409 |  | 0.0621 | 0.0568 | 0.0592 | 
W144R | 0.0645 |  |  | 0.0681 |  | 0.0657 | 0.0586 | 0.0659 |  | 0.0718 |  | 0.0627 | 0.0682 | 0.049 | 0.0763 |  | 0.0496 | 0.0633
D149M | 0.042 | 0.0657 | 0.0568 | 0.067 |  | 0.064 | 0.0533 | 0.0602 | 0.0342 |  | 0.0082 |  |  |  | 0.0535 | 0.0629 | 0.067 | 0.0734
C152D | 0.0661 | 0.0699 | 0.0545 | 0.0648 |  |  |  |  | 0.0593 | 0.0304 | 0.082 |  |  | 0.0534 |  |  | 0.048 | 
C152F | 0.0574 | 0.0627 | 0.0603 | 0.0599 |  | 0.0558 | 0.051 | 0.0541 | 0.051 | 0.0508 | 0.0489 | 0.052 |  |  | 0.0755 | 0.058 | 0.0625 | 
C152K | 0.061 |  | 0.0632 |  | 0.0614 | 0.0675 | 0.0538 | 0.0481 |  |  | 0.0485 |  |  |  | 0.0759 | 0.0548 |  | 
V157F | 0.0481 | 0.0462 | 0.048 | 0.0591 |  | 0.0572 | 0.0431 | 0.0714 | 0.0656 | 0.0582 |  | 0.0539 |  |  | 0.0588 |  | 0.047 | 0.0429
R160K | 0.0749 |  | 0.0572 |  | 0.0623 | 0.0709 |  | 0.0305 |  | 0.0581 |  |  |  |  | 0.0628 | 0.0723 | 0.048 | 
R160V | 0.0543 | 0.0702 | 0.0503 | 0.0577 |  | 0.0617 | 0.0813 | 0.0448 |  | 0.0595 |  |  | 0.0696 | 0.0444 | 0.0497 | 0.0546 |  | 0.0678
H168M | 0.0562 | 0.0659 | 0.0444 | 0.0636 |  | 0.0678 | 0.0584 | 0.0613 | 0.0679 | 0.0576 |  | 0.0598 | 0.0452 | 0.0555 | 0.078 | 0.0511 |  | 
T176D | 0.0647 |  | 0.0665 | 0.057 |  | 0.0636 | 0.064 | 0.0648 | 0.0751 | 0.076 |  |  |  | 0.0563 | 0.0666 | 0.0704 | 0.049 | 
P184H | 0.0502 | 0.0592 |  | 0.0567 | 0.056 | 0.05 |  |  | 0.0567 | 0.0494 |  | 0.061 | 0.0607 | 0.0626 | 0.0634 | 0.0628 | 0.0377 | 
P184V | 0.0578 | 0.0675 | 0.0433 | 0.0591 |  | 0.0544 | 0.0371 | 0.0602 |  |  | 0.0465 | 0.0631 | 0.082 | 0.0846 | 0.0548 |  | 0.102 | 
T192I | 0.0642 | 0.0643 | 0.0449 | 0.0737 |  | 0.0602 | 0.0809 | 0.0743 | 0.0639 | 0.067 | 0.0523 | 0.0632 | 0.0626 | 0.0561 | 0.0769 | 0.0774 | 0.0619 | 
T192V | 0.0642 |  | 0.0582 |  |  | 0.0599 | 0.068 | 0.0495 | 0.0361 | 0.0669 | 0.0609 |  |  | 0.0766 | 0.0845 | 0.0589 | 0.056 | 0.0748
V200S | 0.0591 |  |  |  |  |  |  | 0.0517 |  |  |  |  |  | 0.0501 | 0.0768 |  |  | 
R204H | 0.0639 | 0.0815 | 0.0577 |  | 0.0661 | 0.0673 | 0.0594 | 0.069 | 0.0535 | 0.0608 | 0.0158 |  |  | 0.077 | 0.0722 | 0.0608 | 0.0461 | 0.0522
D208E | 0.0392 | 0.0634 | 0.0587 |  |  | 0.0949 |  |  | 0.0507 | 0.0443 |  |  |  |  |  | 0.0496 | 0.0589 | 0.0528
K216Q | 0.035 | 0.0701 | 0.0528 |  |  |  | 0.0638 |  |  | 0.0392 | 0.0263 |  | 0.0549 |  |  | 0.0526 |  | 
V220R | 0.0795 | 0.0695 | 0.0553 | 0.064 |  | 0.0687 | 0.0608 |  | 0.0571 | 0.0602 | 0.0556 | 0.0499 | 0.0383 |  | 0.0738 | 0.0678 | 0.0556 | 0.0625
E224R | 0.0603 | 0.0712 | 0.0289 | 0.0624 |  | 0.0759 | 0.0494 | 0.0631 | 0.0599 | 0.0611 |  |  |  | 0.053 |  | 0.0344 | 0.0538 | 0.0517

Source: the supplement of paper PMC12217912
